Laboratory results published in the supplement of paper PMC4967469.
A lower IC50 marks a more sensitive line; fits outside the tested doses are given as limits. AUC sums up the same curve from the lowest dose to the 256-fold higher top dose; it is 1 without any effect and falls as sensitivity rises. For some of these results: An inferred top dose comes from the curve model; the source does not state it.

What was measured:
Experiment in all cases: Viability of human cancer cell lines after 72 h of drug (GDSC screen)
Ruxolitinib = compound: N#CC[C@H](C1CCCC1)n1cc(-c2ncnc3[nH]ccc23)cn1 [Ruxolitinib]
Experimental: (§1)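 Human cancer cell lines in 384-well plates, medium with 10% serum, drug for 72 h over a 256-fold dose range (nine 2-fold or five 4-fold steps up to the top dose). Adherent lines were fixed and stained with the nucleic acid dye Syto60, suspension lines read with resazurin; signal relative to control wells, capped at 0 and 100%. One two-parameter sigmoid per drug and line, fitted in a mixed model over all curves with the slope shared within a line.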

UNC1215 = compound: O=C(c1ccc(C(=O)N2CCC(N3CCCC3)CC2)c(Nc2ccccc2)c1)N1CCC(N2CCCC2)CC1 [UNC1215]; conditions: top dose 1 µM; top dose inferred
Experimental: as §1

BIX02189 = compound: CN(C)Cc1cccc(N=C(c2ccccc2)c2c(O)[nH]c3cc(C(=O)N(C)C)ccc23)c1 [BIX02189]; conditions: top dose 20 µM; top dose inferred
Experimental: as §1

VX-11e = compound: Cc1cnc(Nc2ccc(F)cc2Cl)nc1-c1c[nH]c(C(=O)N[C@H](CO)c2cccc(Cl)c2)c1 [VX-11e]; conditions: top dose 5.12 µM; top dose inferred
Experimental: as §1

OSI-027 = compound: COc1cccc2cc(-c3nc([C@H]4CC[C@H](C(=O)O)CC4)n4ncnc(N)c34)[nH]c12 [OSI-027]; conditions: top dose 20 µM
Experimental: as §1

TG101348 = compound: Cc1cnc(Nc2ccc(OCCN3CCCC3)cc2)nc1Nc1cccc(S(=O)(=O)NC(C)(C)C)c1 [TG101348]; conditions: top dose 10.24 µM
Experimental: as §1

CCT018159 = compound: CCc1cc(-c2n[nH]c(C)c2-c2ccc3c(c2)OCCO3)c(O)cc1O [CCT018159]; conditions: top dose 10 µM; top dose inferred
Experimental: as §1

Dimethyloxalylglycine = compound: COC(=O)CNC(=O)C(=O)OC [Dimethyloxalylglycine]; conditions: top dose 4000 µM; top dose inferred
Experimental: as §1

Row | Cell Line | AUC (Ruxolitinib) | IC50 (Ruxolitinib) | further results
1 | CHSA0108 (chondrosarcoma, adherent, top dose 5.24 µM) | 0.954 | > 5.24 µM | –
2 | OVCA420 (ovary, adherent, top dose 5.24 µM) | 0.981 | > 5.24 µM | –
3 | NCI-H2170 (lung squamous cell carcinoma, adherent) | – | – | AUC (UNC1215): 0.986; IC50 (UNC1215): > 1 µM; AUC (BIX02189): 0.982; IC50 (BIX02189): > 20 µM; AUC (VX-11e): 0.986; IC50 (VX-11e): > 5.12 µM; AUC (OSI-027): 0.929; IC50 (OSI-027): > 20 µM; AUC (TG101348): 0.95; IC50 (TG101348): > 10.2 µM; AUC (CCT018159): 0.853; IC50 (CCT018159): 8.39 µM; AUC (Dimethyloxalylglycine): 0.798; IC50 (Dimethyloxalylglycine): 2000 µM
4 | DOV13 (ovary, adherent, top dose 5.24 µM) | 0.981 | > 5.24 µM | –
5 | BT-483 (breast, adherent, top dose 5.24 µM) | 0.978 | > 5.24 µM | –
6 | DMS-273 (small cell lung carcinoma, adherent, top dose 5.24 µM) | 0.969 | > 5.24 µM | –
7 | EB-3 (Burkitt lymphoma, suspension, top dose 5.24 µM) | 0.95 | > 5.24 µM | –
8 | GDM-1 (acute myeloid leukaemia, suspension, top dose 5.24 µM) | 0.827 | 3.01 µM | –
9 | NAMALWA (Burkitt lymphoma, suspension, top dose 5.24 µM) | 0.986 | > 5.24 µM | –
10 | FLO-1 (oesophagus, adherent, top dose 5.24 µM) | 0.973 | > 5.24 µM | –
11 | REH (B-cell leukaemia, suspension, top dose 5.24 µM) | 0.983 | > 5.24 µM | –
12 | HuH-7 (liver, adherent, top dose 5.24 µM) | 0.985 | > 5.24 µM | –
13 | CW-2 (large intestine, adherent, top dose 5.24 µM) | 0.984 | > 5.24 µM | –
14 | NCI-H209 (small cell lung carcinoma, suspension, top dose 5.24 µM) | 0.909 | > 5.24 µM | –
15 | NCI-H2291 (lung adenocarcinoma, adherent, top dose 5.24 µM) | 0.983 | > 5.24 µM | –
16 | DAN-G (pancreas, adherent, top dose 5.24 µM) | 0.991 | > 5.24 µM | –
17 | NCI-H446 (small cell lung carcinoma, semi-adherent, top dose 5.24 µM) | 0.978 | > 5.24 µM | –
18 | MES-SA (uterus, adherent, top dose 5.24 µM) | 0.992 | > 5.24 µM | –
19 | MKN1 (stomach, adherent, top dose 5.24 µM) | 0.977 | > 5.24 µM | –
20 | H513 (mesothelioma, semi-adherent, top dose 5.24 µM) | 0.986 | > 5.24 µM | –
21 | RERF-LC-Sq1 (lung squamous cell carcinoma, adherent, top dose 5.24 µM) | 0.967 | > 5.24 µM | –
22 | KYSE-150 (oesophagus, adherent, top dose 5.24 µM) | 0.989 | > 5.24 µM | –

Row | Cell Line | AUC (Ruxolitinib) | IC50 (Ruxolitinib) | further results
23 | U031 (kidney, adherent, top dose 5.24 µM) | 0.978 | > 5.24 µM | –
24 | NCI-H2081 (small cell lung carcinoma, suspension, top dose 5.24 µM) | 0.987 | > 5.24 µM | –
25 | SK-LU-1 (lung adenocarcinoma, adherent, top dose 5.24 µM) | 0.981 | > 5.24 µM | –
26 | 22RV1 (prostate, adherent, top dose 5.24 µM) | 0.982 | > 5.24 µM | –
27 | RL95-2 (endometrium, adherent, top dose 5.24 µM) | 0.987 | > 5.24 µM | –
28 | KLE (endometrium, adherent, top dose 5.24 µM) | 0.969 | > 5.24 µM | –
29 | KY821 (leukaemia, suspension, top dose 5.24 µM) | 0.991 | > 5.24 µM | –
30 | KCL-22 (chronic myeloid leukaemia, suspension, top dose 5.24 µM) | 0.989 | > 5.24 µM | –
31 | NCI-H441 (lung adenocarcinoma, adherent, top dose 5.24 µM) | 0.979 | > 5.24 µM | –
32 | EKVX (lung adenocarcinoma, adherent, top dose 5.24 µM) | 0.969 | > 5.24 µM | –
33 | PCI-38 (head and neck, adherent, top dose 5.24 µM) | 0.985 | > 5.24 µM | –
34 | SR (lymphoid neoplasm, suspension, top dose 5.24 µM) | 0.804 | 2.31 µM | –
35 | DMS-53 (small cell lung carcinoma, adherent, top dose 5.24 µM) | 0.987 | > 5.24 µM | –
36 | KYAE-1 (oesophagus, suspension, top dose 5.24 µM) | 0.954 | > 5.24 µM | –
37 | MDA-MB-361 (breast, adherent, top dose 5.24 µM) | 0.988 | > 5.24 µM | –
38 | NCI-SNU-5 (stomach, suspension, top dose 5.24 µM) | 0.988 | > 5.24 µM | –
39 | NCI-H1650 (lung adenocarcinoma, adherent) | – | – | AUC (CCT018159): 0.956; IC50 (CCT018159): > 10 µM
40 | GCT (soft tissue, adherent) | – | – | AUC (UNC1215): 0.988; IC50 (UNC1215): > 1 µM; AUC (BIX02189): 0.989; IC50 (BIX02189): > 20 µM; AUC (VX-11e): 0.989; IC50 (VX-11e): > 5.12 µM; AUC (OSI-027): 0.988; IC50 (OSI-027): > 20 µM; AUC (TG101348): 0.9; IC50 (TG101348): > 10.2 µM; AUC (CCT018159): 0.88; IC50 (CCT018159): 9.1 µM; AUC (Dimethyloxalylglycine): 0.913; IC50 (Dimethyloxalylglycine): > 4000 µM
41 | CAMA-1 (breast, adherent) | – | – | AUC (UNC1215): 0.982; IC50 (UNC1215): > 1 µM; AUC (BIX02189): 0.963; IC50 (BIX02189): > 20 µM; AUC (VX-11e): 0.969; IC50 (VX-11e): > 5.12 µM; AUC (OSI-027): 0.668; IC50 (OSI-027): 4.15 µM; AUC (TG101348): 0.953; IC50 (TG101348): > 10.2 µM; AUC (CCT018159): 0.957; IC50 (CCT018159): > 10 µM; AUC (Dimethyloxalylglycine): 0.804; IC50 (Dimethyloxalylglycine): 2620 µM
42 | HeLa (cervix, adherent) | – | – | AUC (UNC1215): 0.985; IC50 (UNC1215): > 1 µM; AUC (BIX02189): 0.988; IC50 (BIX02189): > 20 µM; AUC (VX-11e): 0.986; IC50 (VX-11e): > 5.12 µM; AUC (OSI-027): 0.925; IC50 (OSI-027): > 20 µM; AUC (Dimethyloxalylglycine): 0.501; IC50 (Dimethyloxalylglycine): 251 µM
43 | RD (rhabdomyosarcoma, adherent) | – | – | AUC (UNC1215): 0.983; IC50 (UNC1215): > 1 µM; AUC (BIX02189): 0.941; IC50 (BIX02189): > 20 µM; AUC (VX-11e): 0.707; IC50 (VX-11e): 1.31 µM; AUC (OSI-027): 0.284; IC50 (OSI-027): 0.287 µM; AUC (TG101348): 0.768; IC50 (TG101348): 4.2 µM; AUC (CCT018159): 0.912; IC50 (CCT018159): > 10 µM; AUC (Dimethyloxalylglycine): 0.644; IC50 (Dimethyloxalylglycine): 652 µM
